The text below walks through data of publication PMC2844433.

By UniProt entry, the sequences of proteins in these tests, tags left out. Where a name states a change or a piece, a line headed by the entry shows the natural chain unless it says otherwise. Residues count along the entry.
UniProt P06748: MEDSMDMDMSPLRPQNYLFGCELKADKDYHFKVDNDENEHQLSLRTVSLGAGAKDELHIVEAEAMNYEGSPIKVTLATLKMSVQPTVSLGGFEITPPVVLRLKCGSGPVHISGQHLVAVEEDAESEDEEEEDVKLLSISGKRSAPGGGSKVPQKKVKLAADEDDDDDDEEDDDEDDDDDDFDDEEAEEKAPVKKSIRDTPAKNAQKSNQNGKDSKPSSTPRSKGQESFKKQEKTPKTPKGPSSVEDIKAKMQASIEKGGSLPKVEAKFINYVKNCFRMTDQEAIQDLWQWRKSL
GST-NPM/B23-(aa 1–220): residues 1-220 of P06748
GST-NPM/B23-(aa 1–120): residues 1-120 of P06748
GST-NPM/B23-(aa 120–294): residues 120-294 of P06748
GST-NPM/B23-(aa 220–294): residues 220-294 of P06748

One assay has as its target T1, Myc-Plk2 KD (UniProt Q9NYY3).
T1 sequence: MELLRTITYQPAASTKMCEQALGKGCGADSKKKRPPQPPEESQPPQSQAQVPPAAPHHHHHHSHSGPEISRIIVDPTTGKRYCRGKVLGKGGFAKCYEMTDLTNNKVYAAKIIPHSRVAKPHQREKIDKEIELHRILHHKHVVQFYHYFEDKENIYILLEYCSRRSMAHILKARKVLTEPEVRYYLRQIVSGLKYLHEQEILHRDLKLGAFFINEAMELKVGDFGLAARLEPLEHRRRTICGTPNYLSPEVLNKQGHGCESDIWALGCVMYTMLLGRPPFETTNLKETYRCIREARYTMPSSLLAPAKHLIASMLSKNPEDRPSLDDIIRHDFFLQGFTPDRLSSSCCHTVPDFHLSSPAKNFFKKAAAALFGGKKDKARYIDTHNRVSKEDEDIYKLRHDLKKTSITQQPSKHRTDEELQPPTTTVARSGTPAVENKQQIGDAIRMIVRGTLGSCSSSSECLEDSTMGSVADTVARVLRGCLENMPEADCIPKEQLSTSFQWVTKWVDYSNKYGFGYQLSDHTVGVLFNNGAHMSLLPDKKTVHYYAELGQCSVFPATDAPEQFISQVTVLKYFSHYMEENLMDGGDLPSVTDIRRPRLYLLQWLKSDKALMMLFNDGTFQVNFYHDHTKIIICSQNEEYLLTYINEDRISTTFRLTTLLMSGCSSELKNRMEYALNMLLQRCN
The experiment in a line: co-IP; 293T cells transfected with Flag-NPM/B23 and Myc-Plk2 KD or with Myc-Plk2 KD alone; anti-Flag or anti-Myc immunoprecipitation; lysis buffer 40 mM Tris-HCl pH 7.5, 0.5% NP-40, 150 mM NaCl; Western blot.

The target in assay [1] is Polo-like kinase 2 (Plk2), endogenous in HeLa cells (human (endogenous in HeLa)) (UniProt Q9NYY3). The experiment in a line: co-IP; endogenous Plk2 immunoprecipitated from HeLa lysates with specific antibodies; immunoblot with NPM/B23 antibodies; random IgG as control. On the technique in general: A western blot detects proteins with antibodies after separation by electrophoresis.

For assay [2], the target named is T2, Zz-tagged Plk2 KD (kinase dead) (UniProt Q9NYY3).
T2 sequence: T1 sequence
The experiment in a line: pull-down; Zz-tagged Plk2 WT or KD bound to IgG sepharose, incubated with 10 mg HeLa extract for 3 h at 4°C; eluted with 200 mM NaCl, then 1 M NaCl; Western blot; only the target purified.

Assay [3] addresses Zz-tagged kinase active Plk2 (Plk2 WT) (UniProt Q9NYY3). Described as above.
Another assay concerns the target GST-NPM/B23-(aa 220–294) (UniProt P06748). The experiment in a line: pull-down; 25 µg GST-NPM/B23 truncated versions bound to glutathione agarose, incubated with 8 µl in vitro translated [35S]-methionine-labeled HA-Plk2 in PBS with 0.05% NP-40 for 2 h at 4°C; autoradiography; only the target purified.
Another assay has as its target GST-NPM/B23-(aa 120–294) (UniProt P06748). Described as above.
In a further assay the target is GST-NPM/B23-(aa 1–220) (UniProt P06748). The description is as above.
The target of a further assay is GST-NPM/B23-(aa 1–120) (UniProt P06748). Described as above.

These are yes or no findings as the source states them, for the method shown. Binding seen in cells or lysates may run through a third protein. Some results given as binding are weak or reduced against the parent protein; the word gives no strength. For some assays here: Tags and fused reporters may be left off the sequences shown.

Turning to “NPM/B23 (Nucleophosmin), endogenous in 293T cells (from UniProt P06748 1-294)”, the binding result with Myc-Plk2 KD is recorded as “binds”.
Take “NPM/B23 (Nucleophosmin), endogenous in HeLa cells (from UniProt P06748 1-294)”: the binding entry in assay [1], in assay [2] and in assay [3] was “binds” each time.
Consider “in vitro translated [35S]-HA-Plk2 (from UniProt Q9NYY3 1-685) (enzyme)”, for which the binding entry in the assay with GST-NPM/B23-(aa 220–294) is on record as “binds”; in the assay with GST-NPM/B23-(aa 120–294), “binds”; with GST-NPM/B23-(aa 1–220), “no binding”; in the assay with GST-NPM/B23-(aa 1–120), “no binding”.
